Reference: article PMC4336329 (PLoS ONE, 2015)
About 14,000 (4.5%) of roughly 310,000 compounds showed an effect of 50% or more. The effect is printed as a negative number. Some of the results follow.

Target: human ether-à-go-go-related gene (hERG) potassium channel (human, UniProt Q12809)
Assay: primary screen, population patch clamp on CHO cells stably expressing hERG
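Further: peak tail current of the secondary pulse compared with the same well before compound.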

Sequence of human ether-à-go-go-related gene (hERG) potassium channel (Q12809 whole entry, looked up): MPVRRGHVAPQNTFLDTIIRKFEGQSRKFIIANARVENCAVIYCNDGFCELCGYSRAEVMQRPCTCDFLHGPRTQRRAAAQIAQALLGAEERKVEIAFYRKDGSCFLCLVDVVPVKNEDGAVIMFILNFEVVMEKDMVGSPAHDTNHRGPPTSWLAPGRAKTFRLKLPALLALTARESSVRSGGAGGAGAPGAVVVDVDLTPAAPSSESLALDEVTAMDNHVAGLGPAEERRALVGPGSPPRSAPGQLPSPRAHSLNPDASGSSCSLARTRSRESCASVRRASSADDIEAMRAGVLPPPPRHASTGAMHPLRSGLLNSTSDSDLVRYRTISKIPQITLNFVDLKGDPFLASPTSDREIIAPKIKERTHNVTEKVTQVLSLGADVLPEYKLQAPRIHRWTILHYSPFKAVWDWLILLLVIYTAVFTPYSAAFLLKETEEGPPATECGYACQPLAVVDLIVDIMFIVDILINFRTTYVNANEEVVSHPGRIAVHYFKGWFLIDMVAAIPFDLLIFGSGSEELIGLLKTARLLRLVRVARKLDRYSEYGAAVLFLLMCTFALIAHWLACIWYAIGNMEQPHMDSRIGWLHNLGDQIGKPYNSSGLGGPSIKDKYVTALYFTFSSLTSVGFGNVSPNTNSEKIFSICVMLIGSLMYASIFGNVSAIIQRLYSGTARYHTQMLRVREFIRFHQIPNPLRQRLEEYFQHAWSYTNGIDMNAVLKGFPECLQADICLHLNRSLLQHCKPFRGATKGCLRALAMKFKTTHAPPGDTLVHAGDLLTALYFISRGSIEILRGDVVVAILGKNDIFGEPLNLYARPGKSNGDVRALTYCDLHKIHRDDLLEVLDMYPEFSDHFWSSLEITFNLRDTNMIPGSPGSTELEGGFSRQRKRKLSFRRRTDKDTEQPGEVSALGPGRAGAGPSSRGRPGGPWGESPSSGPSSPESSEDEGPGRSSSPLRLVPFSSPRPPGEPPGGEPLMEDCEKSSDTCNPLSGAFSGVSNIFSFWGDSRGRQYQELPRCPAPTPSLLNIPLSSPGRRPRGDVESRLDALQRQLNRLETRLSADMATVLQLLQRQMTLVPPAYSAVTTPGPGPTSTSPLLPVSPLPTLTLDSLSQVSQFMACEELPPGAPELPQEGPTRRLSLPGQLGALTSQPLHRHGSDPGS

Point of comparison: C[C@@H](C(=O)Nc1ccc2c(c1)OCO2)n1c(=O)[nH]c2ccccc2c1=O, “hERG current change (%, negative = inhibition) at 10uM” value 20.3%. Against it:
- CCc1ccc2ncc(S(=O)(=O)c3ccc(C)c(C)c3)c(N3CCCC3)c2c1 — lower, 0.769%
- Cc1cc(C=C2C(=O)NC(=O)NC2=O)c(C)n1-c1cccnc1 — lower, 2.47%
- COc1cccc(CNC(=O)C2CCN(S(=O)(=O)c3ccccc3)CC2)c1 — lower, -36%
- Cc1c(NC(=O)N(C)C)c(=O)n(-c2ccccc2)n1C — lower, 3.75%
- CCOc1ccc2nc(NC(=O)C3CCN(C(=O)c4ccco4)CC3)sc2c1 — lower, 10.1%
- COc1ccc(C(=O)NC(=S)Nc2cccc3cc(O)ccc23)cc1OC — lower, 15.2%
- COc1ccc(NC(C)=O)cc1NC(=O)CN1CCN(CC(=O)Nc2ccccc2Cl)CC1 — lower, -53.3%
- COCCCNc1nc2nonc2nc1N(C)CC1CCCN1C (stereo not drawn) — lower, 2.5%
- CN1CCN(c2ccc(NC(=O)Cc3ccccc3)cc2)CC1 — lower, -8.92%
- CCC(=O)N1CCc2cc(S(=O)(=O)N3CCc4ccccc43)ccc21 — lower, 2.61%
- COC(=O)c1cc2ccsc2n1Cc1ccccc1F — lower, -4.64%
- O=C(CSc1nc2c(c(=O)n1-c1ccc(Cl)cc1)SCC2)N1CCCC1 — lower, -17.4%
- Cc1ccc(S(=O)(=O)N2CC[C@@H]2C(=O)O)cc1 — lower, 14%
- CCc1ccc(-c2cc(C)no2)cc1S(=O)(=O)NCc1ccc(OC)c(OC)c1 — lower, -10%
- CCN(c1ccc(C)c(C)c1)S(=O)(=O)c1c(C)[nH]c(=O)[nH]c1=O — lower, 14.6%
- O=C(CSc1ccc(-c2ccccn2)nn1)c1ccc(F)cc1 — lower, -10.4%
- Cc1ccc(CNC(=O)Cn2cncn2)cc1 — lower, 12.5%
- COc1cccc(NC(=O)N2CCC(C(N)=O)(N3CCCCC3)CC2)c1 — lower, 6.17%
- CCOc1ccc(N2C(=O)CC(=O)NC2=O)cc1 — higher, 24.3%
- CCn1c(CC(=O)Nc2ccccc2F)nnc1SCC(=O)Nc1nncs1 — lower, 1.11%
- Cn1nc(C(F)(F)F)c(-c2ccc(Br)cc2)c1NC(=O)c1nccnc1C(=O)O — lower, 17.7%
- O=[N+]([O-])c1cc(-c2ncccn2)cs1 — lower, 14.7%
- Cc1[nH]c(=S)c(C#N)c(C)c1C(=O)Nc1ccccc1 — lower, 15.1%
- CCCCN(CC)CCNC(=O)c1cc2c(-c3ccccc3F)nn(C)c2s1 — lower, -66.7%
- O=C(CCc1ccc(Oc2cc([N+](=O)[O-])cc([N+](=O)[O-])c2)cc1)NC1CCCC1 — lower, -5.16%
- CCOc1ccc(N2C(=O)C(=O)/C(=C(/O)c3ccccc3)C2c2ccccc2[N+](=O)[O-])cc1 (stereo not drawn) — lower, 13.2%
- O=C1c2ccccc2NC(c2cn[nH]c2-c2ccc(Cl)cc2)N1O (stereo not drawn) — lower, 13.1%
- CCSc1nnc(-c2ccc(Cl)cc2Cl)o1 — lower, -1.56%
- CS(=O)(=O)N1CCN(c2ccccc2[N+](=O)[O-])CC1 — lower, 6.06%
- CC(=O)c1cccc(NC(=O)NNC(=O)c2ccc(Cl)cc2Cl)c1 — lower, -6.36%
- CC(=O)c1cc(C#N)c(SCC(=O)Nc2nccs2)nc1C — higher, 23.7%
- CC(=O)C12C3C4C(C5C1C3C5(Br)C41OCCO1)C21OCCO1 (stereo not drawn) — lower, 1.34%
- Nc1c(Cl)ncnc1NCCc1ccc(O)cc1 — lower, 9.93%
- CN(CC(=O)Nc1ccc(SC(F)F)cc1)C1CCCCC1 — lower, -70%
- Cc1cc(C(F)F)nn1CC(=O)NCc1ccco1 — lower, 16.3%
- CCc1ccc(C(=O)Nc2nc3ccccc3[nH]2)cc1 — lower, 17.2%
- CCOC(=O)c1ccc(NS(=O)(=O)c2cc(-c3nnnn3CC)ccc2OC)cc1 — lower, 10.6%
- COc1ccccc1/C=C/C=N\N1CCN(Cc2ccccc2Cl)CC1.Cl — lower, 7.53%
- Cc1ccc(OCCNS(=O)(=O)c2ccc(N3CCCC3=O)cc2)cc1 — lower, 9.5%
- Cc1nnsc1C(=O)NC1CCCc2c1cnn2-c1ccc(F)cc1F (stereo not drawn) — lower, 12.5%
- O=C(CSCc1ccccc1)N1CCc2ccccc21 — lower, -14.8%
- CC1Oc2ccccc2N(CC(=O)c2cccc(Cl)c2)C1=O (stereo not drawn) — lower, -23.2%
- CCC(=O)N1CCN(c2ccc(NC(=S)NC(=O)COc3ccccc3)cc2)CC1 — lower, -21.6%
- O=C(O)/C=C/c1cccc2c1OCCO2 — lower, -4.71%
- O=C(CSc1nnc(-c2ccco2)n1-c1ccccc1)NCCc1ccccc1 — lower, -69.4%
- Oc1c(Br)cc2oc3c(c2c1CNCc1ccccc1)CCCC3 — lower, 15.5%
- CC1CCN(c2nc3c(c(=O)[nH]c(=O)n3C)n2CC(C)CSc2nnnn2-c2ccccc2)CC1 (stereo not drawn) — lower, -57.6%
- CCn1c(CNC(=O)c2ccccc2F)nnc1SCc1nc2ccccc2c(=O)[nH]1 — lower, 0.31%
- CCN(CC)CCC(c1ccc(N(C)C)cc1)c1c(OC)cc(OC)c2c(-c3ccccc3)cc(=O)oc12 (stereo not drawn) — lower, -24.5%
- O=c1[nH]c(=O)n(CCC2=CCCCC2)c(O)c1/C=N/N1CCOCC1 — lower, -21.6%
- O=C(NCCCCc1ccccc1)c1cc([N+](=O)[O-])cc([N+](=O)[O-])c1 — lower, -17.5%
- CN(CC(=O)Nc1cccc(S(=O)(=O)N2CCCCC2)c1)Cc1ccc(F)cc1 — lower, -20.1%
- O=C(CO/N=C\c1ccccc1)Nc1ccccc1C(=O)N1CCOCC1 — lower, 20.2%
- O=C(CCN1CCOCC1)N1CCc2c([nH]c3ccccc23)C1c1cccc(Cl)c1 (stereo not drawn) — lower, -70.5%
- Cc1ccc(S(=O)(=O)N(Cc2ccc(Cl)cc2)c2ccccc2C(=O)NCc2cccnc2)cc1 — lower, -52%
- CCOc1ccc(N2C(=O)NC(=O)/C(=C\c3cc(OC)c(OC)cc3[N+](=O)[O-])C2=O)cc1 — higher, 27.1%
